Experimental data from PubChem BioAssay (NCI).
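Cells were grown in 96-well plates and exposed to each compound for 48 hours at five concentrations; endpoints were interpolated linearly between bracketing concentrations, or set to the highest concentration if not reached. At the GI50, growth is halved. TGI marks complete inhibition of growth.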

Test system: NCI-H322M lung
Assay: NCI anticancer screen, dose series, 48 h

COc1ccc2c(c1)Oc1nc(N)c(C#N)c(N)c1C2Sc1ccc(C)cc1 (configuration not stated)
GI50: 1650 nM | TGI: 3020 nM
